# Assay results: publication PMC4336329 (PLoS ONE, 2015)
# In all, about 310,000 compounds went through this assay and about 14,000 (4.5%) showed an effect of 50% or more. Effects have a minus sign here. The list shows a part of the results.
# Target: human ether-à-go-go-related gene (hERG) potassium channel (human, UniProt Q12809)
# Assay: primary screen, population patch clamp on CHO cells stably expressing hERG
# 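Also: peak tail current of the secondary pulse compared with the same well before compound.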
# human ether-à-go-go-related gene (hERG) potassium channel, sequence (Q12809 whole entry, looked up): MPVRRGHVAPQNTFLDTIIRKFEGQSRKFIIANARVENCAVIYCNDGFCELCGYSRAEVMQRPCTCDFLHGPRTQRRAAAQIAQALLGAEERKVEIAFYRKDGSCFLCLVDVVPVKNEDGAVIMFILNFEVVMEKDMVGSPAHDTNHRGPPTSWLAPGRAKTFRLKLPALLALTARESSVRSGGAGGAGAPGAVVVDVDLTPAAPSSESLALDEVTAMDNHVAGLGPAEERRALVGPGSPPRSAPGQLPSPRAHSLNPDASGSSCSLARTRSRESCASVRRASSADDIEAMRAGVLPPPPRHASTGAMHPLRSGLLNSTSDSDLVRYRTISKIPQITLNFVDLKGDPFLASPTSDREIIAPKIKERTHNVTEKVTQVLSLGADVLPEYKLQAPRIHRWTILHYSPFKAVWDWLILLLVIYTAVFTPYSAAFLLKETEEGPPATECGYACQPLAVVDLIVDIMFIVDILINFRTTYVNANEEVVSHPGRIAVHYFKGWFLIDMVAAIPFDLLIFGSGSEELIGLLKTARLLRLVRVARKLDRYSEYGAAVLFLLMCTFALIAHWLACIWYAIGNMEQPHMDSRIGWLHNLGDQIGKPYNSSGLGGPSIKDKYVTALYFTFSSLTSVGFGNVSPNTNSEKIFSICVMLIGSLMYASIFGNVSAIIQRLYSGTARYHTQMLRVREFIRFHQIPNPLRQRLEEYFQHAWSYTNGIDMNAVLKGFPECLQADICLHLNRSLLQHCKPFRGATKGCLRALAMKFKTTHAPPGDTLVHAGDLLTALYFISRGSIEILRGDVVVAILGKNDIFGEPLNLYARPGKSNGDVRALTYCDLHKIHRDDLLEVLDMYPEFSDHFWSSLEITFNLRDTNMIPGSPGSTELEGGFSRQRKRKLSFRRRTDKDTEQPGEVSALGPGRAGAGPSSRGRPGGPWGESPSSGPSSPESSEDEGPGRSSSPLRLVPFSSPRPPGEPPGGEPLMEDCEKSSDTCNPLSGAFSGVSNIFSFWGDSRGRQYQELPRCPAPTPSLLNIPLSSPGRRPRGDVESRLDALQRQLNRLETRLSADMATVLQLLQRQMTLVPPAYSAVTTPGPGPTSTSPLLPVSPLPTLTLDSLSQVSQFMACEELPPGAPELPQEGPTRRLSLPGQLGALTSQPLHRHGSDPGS
row,SMILES,"hERG current change (%, negative = inhibition) at 10uM"
1,O=C(Nc1nncs1)c1cc(-c2ccncc2)nc2ccc(Cl)cc12,4.4%
2,Cc1cc(N)n2ncc(-c3ccc(F)cc3)c2n1,-1.46%
3,CC1CCCN(c2nc3ccsc3c(=O)s2)C1 (stereo not shown),-16%
4,C/C(=N\NC(=O)c1ccc(O)cc1)c1ccc(NC(=O)Cc2ccccc2)cc1,15.3%
5,COc1ccc2nc(NC(=O)C3CCN(S(=O)(=O)c4cnc[nH]4)CC3)sc2c1,17.5%
6,O=C(O)Cn1nc(C(F)(F)F)c2c1CCCC2,8.89%
7,COC(=O)C1=C(CS(=O)(=O)c2ccc(OC)cc2)NC(=O)NC1c1ccccc1 (stereo not shown),11.6%
8,COc1ccc(C2CC(c3ccc(OC)cc3)n3nc(NC(=O)c4ccco4)nc3N2)cc1 (stereo not shown),-19.2%
9,CCOC(=O)N1CCN(S(=O)(=O)CCNC(=O)c2ccc(F)cc2)CC1,-20.1%
10,COc1ccc(-n2nc3c(c2NC(=O)CCCl)CSC3)cc1,0.615%
11,O=C(CN1CCN(S(=O)(=O)c2ccccc2[N+](=O)[O-])CC1)Nc1ccc(N2CCOCC2)cc1,-12.9%
12,CCN1C(=O)/C(=C2/C=CC=CN2C)SC1=S,-35.2%
13,COc1cccc(CN2CCCC(C(=O)c3ccc4c(c3)OCO4)C2)c1O (stereo not shown),-65.5%
14,COc1cc(C(=O)COC(=O)CNC(=O)C2CCCCC2)cc(OC)c1OC,-0.253%
15,Cc1cc(OCc2cc(C(=O)NC3CCC3)no2)cc(C)c1Cl,3.82%
16,COc1ccc(/C=C2/SC(=O)N(CC(O)Cn3c4ccccc4c4ccccc43)C2=O)cc1 (stereo not shown),4.63%
17,Cc1nn(-c2ccccc2)c(/N=C/c2ccccc2O)c1-c1ccccc1,-8.85%
18,O=C(Nc1ccn(-c2ccccc2)n1)c1ccccc1Br,-66%
19,Cc1cc(NC(=O)c2ccc(Cl)c(S(=O)(=O)N3CCOCC3)c2)no1,3.9%
20,COc1ccc(CC(=O)N2CCN(S(=O)(=O)c3ccc(Cl)s3)CC2)cc1,-39.7%

row,SMILES,"hERG current change (%, negative = inhibition) at 10uM"
1,CNC(=O)COC(=O)c1ccc2c(c1)NC(=O)C1CCCN21 (stereo not shown),11.7%
2,O=C(NCCCn1ccnc1)c1cc(-c2ccc3c(c2)OCO3)on1,-5.96%
3,CC1CCC/C(=C\Nc2ccc3c(c2)OCO3)C1=O (stereo not shown),-13.5%
4,CN(C(=O)CSc1nnc(-c2c[nH]c3ccccc23)n1C1CC1)C1CCS(=O)(=O)C1 (stereo not shown),-12.1%
5,O=C(NC1=NCCS1)c1nc(-c2ccccc2)n(-c2ccccc2)n1,4.57%
6,CC(=O)c1ccc(S(=O)(=O)N2CCN(CC(=O)Nc3ccccc3C(=O)NC3CC3)CC2)cc1,-75.4%
7,COc1ccc(C(=O)NCCn2nc(C)cc2C)cc1OC1CCN(C(C)=O)CC1,25.7%
8,CCCN(CCC)CC(=O)N1CC(=O)Nc2ccccc21,8.18%
9,Nc1nnc(SCCCOc2ccc(F)cc2)s1,10.9%
10,Nn1c(SCC(=O)N2CCN(S(=O)(=O)c3ccc(Cl)cc3)CC2)nnc1-c1cccs1,-52.1%
11,Cn1cccc1C(=O)NCC(c1ccco1)N1CCCCC1 (stereo not shown),-16.2%
12,COc1ccc(S(=O)(=O)N(CC(=O)O)c2ccc(C)cc2)cc1,4%
13,CCCCCOc1ccc(C2C(C(C)=O)=C(C)Nc3ncnn32)cc1OC (stereo not shown),-2.28%
14,CC(=O)c1cc2c(cc1NC(=O)CCCC(=O)O)OCO2,10.6%
15,COc1cc(-c2nnc(SCC(=O)NC3CCCC3)n2C)cc(OC)c1O,35.2%
16,CC(C)NS(=O)(=O)c1ccc(CCC(=O)Nc2ccc3c(c2)OCCO3)cc1,-1%
17,O=C(O)CCNS(=O)(=O)c1ccc2c(c1)Cc1ccccc1-2,4.88%
18,CC(=O)c1cccc(NC(=O)N2CCCC2C(=O)NCc2ccc(C)cc2)c1 (stereo not shown),-36.7%
19,COc1ccc(CSc2nncn2N)cc1Br,4.98%
20,O=C(N/N=C/c1ccccc1OCC(=O)N1CCCC1)C(=O)Nc1ccccc1F,-11.9%

row,SMILES,"hERG current change (%, negative = inhibition) at 10uM"
1,CN(C)S(=O)(=O)c1ccc(C(=O)Nc2nnc(SCC(=O)NCC3CCCO3)s2)cc1 (stereo not shown),12.2%
2,CCC(CC)NC(=O)Nc1cccc(C)c1C,-17%
3,CCc1nc2sc3c(c2c(=O)n1CCO)CCC3,14.1%
4,CCN1CCN(C(=O)c2cc(COc3c(C)cccc3C)on2)CC1,-32.3%
5,Cc1nn(CC(=O)Nc2ccc3c(c2)nc(CN2CCCCC2)n3C)c(=O)c2ccccc12,-4.03%
6,CN(C)P1(N(C)C)=NC(C(F)(F)F)=NC(C(F)(F)F)=N1,17.5%
7,CNS(=O)(=O)c1cc(-c2nnc(N3CCOCC3)c3ccccc23)ccc1C,-17.1%
8,O=C(Nc1cccnc1)Nc1ccc(Br)cc1Cl,-0.533%
9,O=C(Cc1ccc(F)cc1)NC1CCSC1=O (stereo not shown),17.1%
10,CCn1c(SCC(=O)Nc2ccccc2OC)nc2ccccc2c1=O,-11.9%
11,COC(=O)c1sc2nc3c(c(-c4cccs4)c2c1N)CCCC3,9.57%
12,Cc1cc(C)c(C)c(OCC(=O)N2CCN(c3ccccn3)CC2)c1,-33.6%
13,CN(C)c1ncc(S(=O)(=O)c2ccccc2)c(-c2ccccc2Cl)n1,-20.2%
14,CCn1nc(C)cc1-c1n[nH]c(=S)n1N,23.1%
15,O=C(COc1ccc2c(c1)OCO2)Nc1nccs1,18.7%
16,Cc1c(NC(=O)C(C)OC(=O)c2cccnc2)c(=O)n(-c2ccccc2)n1C (stereo not shown),14.4%
17,N/C(=N\OC(=O)/C=C/c1ccccc1Cl)c1ccncc1,-28.5%
18,CCn1c(C(=O)O)c(CC(=O)NC2CCCCCC2)c2ccccc21,16.2%
